From the RNAGym collection of RNA variant scans (doi:10.1073/pnas.2313332121) come the findings set out here.

Variants at the background level are over-represented here.

B1: TPR 5TU (parent)
chain: GGAUCUUCUCGAUCUAACAAAAAAGACAAAUCUGCCACAAAGCUUGAGAGCAUCUUCGGAUGCAGAGGCGGCAGCCUUCGGUGGCGCGAUAGCGCCAACGUUCUCAACUAUGACACGCAAAACGCGUGCUCCGUUGAAUGGAGUUUAUCAUG

In this data set the parent is B1. Briefly: polymerase ribozyme fitness, log enrichment relative to wild type (log ratio); higher = more active; in vitro selection for triplet polymerase activity. The procedure, abridged: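 To select mutant libraries of each subunit of a heterodimeric triplet polymerase ribozyme, built by PCR and transcribed, each was annealed with a biotinylated primer, partner subunit and triplets, then incubated frozen at −7 °C. Extended constructs were gel-excised, captured on streptavidin beads and amplified by RT-PCR, in one round carried out in triplicate. Illumina sequencing of input and output libraries kept genotypes with ≥10 input reads and ≥1 read per output. Fitness is the base-2 logarithm of genotype enrichment relative to wild-type enrichment, from inverse-variance-weighted replicate averages.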
As for C69U A73G G83C, the “polymerase ribozyme fitness (log ratio)” value is -3.38. The same measure for A66G G84U G152C: at most -4.2; for G68A A89G U90A C93U: at most -4.2.

With C69G C85A G94U, the “polymerase ribozyme fitness (log ratio)” value is -1.01. The same measure for G68A C72U: -4.15. On to G65A G71U C85A, for which the “polymerase ribozyme fitness (log ratio)” value is at most -4.2.

With C69A C118G, the “polymerase ribozyme fitness (log ratio)” value was -2.21. The value for G65A C69G U78A U90G C96A G100A C108A U145A was at most -4.2; that for G67C C69U G88A C93G G143C was at most -4.2; that for G65C U90C was at most -4.2.

As to G67C U139G, the “polymerase ribozyme fitness (log ratio)” value was at most -4.2. The same measure for G67C A73U A91G G136A A137G: at most -4.2.

For C69U G70C C93G C114A A150C, the “polymerase ribozyme fitness (log ratio)” value is at most -4.2. The value for A66C C93U C103A A113U C116G A142U A150C was at most -4.2.

A66C C93U: the “polymerase ribozyme fitness (log ratio)” value is at most -4.2.

For A66G U82G C93A, the “polymerase ribozyme fitness (log ratio)” value is at most -4.2. The value for C69U A106U U109C A122U C125U was at most -4.2; that for G67A A98U U139C U148A was at most -4.2; that for C69G C85U A91G C118A C129G U144A was at most -4.2. The same measure for A66C G92C C114U: at most -4.2. The value for G68A C69G G80A U104G was at most -4.2. With A66C C79A C85G G92U U102A A137G, the “polymerase ribozyme fitness (log ratio)” value was at most -4.2. The value for G65C G70A G86A U90G C95A G143U was at most -4.2; that for A66G G88A C99A G143U was at most -4.2. The same measure for G68U G81A: at most -4.2; for G67C G68A C85U C99A A115U: at most -4.2. The same measure for C69U G84C C132G G143A: at most -4.2; for G65A C72G C85U C93U A106G: at most -4.2. As for G65U C93A G117C, the “polymerase ribozyme fitness (log ratio)” value was at most -4.2. The same measure for C69U G136A A142U: -0.531; for G68U C76A C85U A107G: at most -4.2; for G68U C85A G143A U145A A147U: at most -4.2. The same measure for G68C G83A: at most -4.2; for G65A C85A: -2.26. Take A66U U78G C85U A137C: the “polymerase ribozyme fitness (log ratio)” value was at most -4.2. The same measure for G68A G94U C125G A142C: at most -4.2; for G67A G68C A89C: at most -4.2; for A66G A89U C93U C95G: at most -4.2. The same measure for G68A C93U U104C A106G: at most -4.2. The value for G68A C99G was at most -4.2; that for G68C U78G G84A G152U was at most -4.2. With G68A A98U A106G A120U C131G, the “polymerase ribozyme fitness (log ratio)” value is at most -4.2. The value for G65U A97G C99A was at most -4.2. In the case of G68A C85G C118G U146G U148G, the “polymerase ribozyme fitness (log ratio)” value is at most -4.2. The value for G67C G83A C123G was at most -4.2; that for G67C C87A G100A was at most -4.2. The value for C69U G83A G88A A113U G141C was at most -4.2; that for G68U G83A A98G G124A G140C was at most -4.2; that for A66C G80C C87U A107C C116A U145C was at most -4.2. The value for A66C C75A U82C G84A was at most -4.2; that for C69G C103G C116U was -2.03; that for A66G G84A C108G was at most -4.2.

Turning to G68C A89G A120G A147U U148G, the “polymerase ribozyme fitness (log ratio)” value was at most -4.2.

In the case of G68U C76U A98U C99G U102A C118U A120U, the “polymerase ribozyme fitness (log ratio)” value is at most -4.2.

Consider G65C C76G U78C G80C C95A C131A, for which the “polymerase ribozyme fitness (log ratio)” value is at most -4.2. The same measure for C69U G100A A137C: at most -4.2. The same measure for G65C U77A C87A A115U: at most -4.2. The same measure for C69G G71C A121U G133U C149U: at most -4.2. G70A A89G G92U A107G: the “polymerase ribozyme fitness (log ratio)” value is at most -4.2. A66U A91U U139A: the “polymerase ribozyme fitness (log ratio)” value is at most -4.2. Consider G68C U78C G86A, for which the “polymerase ribozyme fitness (log ratio)” value is at most -4.2. The same measure for G67U G88U: at most -4.2; for A66G U78G A107C U134G G143C: at most -4.2. The same measure for G65U U82C A91G C96A C99U: at most -4.2; for C69U C85A: -3.16; for A66G G88C G92U C99G G141U: at most -4.2. The same measure for G67C G80C G92A C103A C118G G133A: at most -4.2. Take A66G C85A A115G A121C A138U U144A: the “polymerase ribozyme fitness (log ratio)” value was at most -4.2.

As to G67C U82A U130G G143C, the “polymerase ribozyme fitness (log ratio)” value was at most -4.2. The value for C69U C76G A97G U144C C149A G152A was at most -4.2. The value for G67U U146C was -2.47; that for C69U C72A A119G A137G was at most -4.2; that for A66C C85G was -4.16. The same measure for G67C G88C C116G A122U G128U U144A: at most -4.2. Regarding G68C C93G C131A, the “polymerase ribozyme fitness (log ratio)” value was at most -4.2. Regarding G65C G80A C103G, the “polymerase ribozyme fitness (log ratio)” value is at most -4.2.

Turning to A66G C85G, the “polymerase ribozyme fitness (log ratio)” value was at most -4.2. The same measure for C69U C75U G92A U104G G133U C149U: at most -4.2; for G67A C114U U134G A150C: at most -4.2. The same measure for G65A A110U C114G G143A: at most -4.2. As to C69A G70A, the “polymerase ribozyme fitness (log ratio)” value was -4.19. The value for G68A C76A C85U A106G A120C G128U was at most -4.2. Regarding G65A G70A G133U U144G, the “polymerase ribozyme fitness (log ratio)” value is at most -4.2. The same measure for C69U C95U: -1.47.
